Hit rate of the full screen: of about 110,000 compounds, about 40 (0.04%) were called active. Inconclusive results, whose numbers are uncertain, are shown with a selection of clear calls. Calls come from the whole dose curve; as a rule, active = well fitted curve in the direction sought with a large enough effect in the signal ratio (not every such curve was filed as active); inconclusive = small, poorly fitted or top-dose-only effect, or a change in a side signal; inactive = flat fitted curve, though single readings scatter; the % refers to the signal ratio. Where the call is inconclusive, the potency comes from a doubtful curve fit.
Experiment: IkB Signaling;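 for IkBa stabilization activation: 0% = basal untreated cells and 100% = reference inhibitor full response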
Settings: ABC-DLBCL IkBa-CBG/CBR dual luciferase ratio (green luciferase fused to IkBa over red control in OCI-Ly3 lymphoma cells), 4 h; IkBa stabilization activation: at 57.1 µM (top of the series), scaled: untreated 0%, proteasome inhibitor 100% unless noted
Method in brief: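 Luminescence ratio of IκBα-fused green versus native red beetle luciferase in OCI-Ly3 cells, 4 h post-doxycycline with compound; red signal alone, scaled from basal (0%) to zero light (-100%), flagged nonspecific or cytotoxic effects.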
Potency is the fitted concentration of half-maximal effect.

| Structure (SMILES) | IkBa stabilization activation | Potency |
| --- | --- | --- |
| CC1CCCCN1C(=O)c1ccc2c(c1)N(Cc1ccc(Cl)cc1)C(=O)c1ccccc1S2=O (configuration not stated) | inconclusive: 6.41% [signal inhibitor] | – |
| C[C@@]12CCC(=O)C=C1CC[C@@H]1[C@@H]2[C@H](O)C[C@]2(C)[C@@H]1CC[C@]2(O)C(=O)COC(=O)CCC(=O)O | – | active: 0.126 µM |
| CCOC(=O)c1[nH]c2ccccc2c1NC(=O)c1c(F)cccc1F | inactive | – |
| Cc1ccc(-c2nn(CC(=O)NCCN3CCOCC3)c(=O)c3ccccc23)cc1 | inactive | – |
| CCc1cccc(NC(=O)c2cc(-c3ccccc3)n[nH]2)c1 | – | inconclusive: 31.6 µM [signal inhibitor, partial curve] |
| O=C(Nc1cccc(Cl)c1)C1CCN(c2nc3ccccc3nc2C(F)(F)F)CC1 | inconclusive: 10.4% [signal inhibitor] | – |
| COc1cccc(OCCCn2c(-c3ccc(Cl)cc3)nc3ccccc3c2=O)c1 | inconclusive: 4.13% [signal inhibitor] | – |
| Cc1ccsc1C(=O)Nc1nnc(-c2ccco2)o1 | – | inconclusive: 3.98 µM [rising, partial curve] |
| CCCCSCCCNC(=O)CS(=O)Cc1nc(-c2cccc(C)c2)oc1C (configuration not stated) | inconclusive: 12.4% [signal inhibitor] | – |
| Cc1cc(C)n(-c2nc3ccccc3[nH]c2=O)n1 | – | inconclusive: 25.1 µM [signal inhibitor, partial curve] |
| CCCCSc1nnc2c(n1)OC(c1ccc(Br)s1)Nc1ccccc1-2 (configuration not stated) | inconclusive: 19.7% [signal inhibitor] | – |
| CCCCOC(=O)c1ccc(-n2nnc3c(sc4nc(C)cc(C)c43)c2=O)cc1 | inconclusive: 7.51% [signal inhibitor] | – |
| COc1ccc(CNC(=O)c2c(O)nc3c(C)cccn3c2=O)cc1 | inconclusive: -0.0252% [signal inhibitor] | – |
| Cc1cc(N2CCC(C)CC2)nc2ccc(NC(=O)Cc3ccccc3Br)cc12 | inconclusive: 1.43% [signal inhibitor] | – |
| COc1cc2nc(Nc3cccc(F)c3)nc(N)c2cc1OC | inconclusive: 10.3% [signal inhibitor] | – |
| CCOc1ccc(-c2nc(-c3ccccc3)c(-c3ccccc3)[nH]2)cc1OCC | inconclusive: 0.294% [signal inhibitor] | – |
| COc1ccc(OC)c(NC(=O)c2nc(S(=O)(=O)Cc3ccc(F)cc3)ncc2Cl)c1 | inactive | – |
| CCOC(=O)N[C@H](Cc1c[nH]c2ccccc12)C(=O)Nc1cccc(Cl)c1 | – | inconclusive: 31.6 µM [signal inhibitor] |
| OC[C@@H]1O[C@@H](n2cnc3c(NCc4ccco4)ncnc32)[C@H](O)[C@H]1O | inactive: 3.31% [at 11.4 µM, scaled: untreated 0%, proteasome inhibitor 100%] | – |
| COc1ccc(-c2nnc3sc(-c4cccs4)nn23)cc1OC | inactive | – |
| CCOc1ccccc1N1CSC2=C(C#N)C(c3c(OC)ccc4ccccc34)CC(=O)N2C1 (configuration not stated) | – | inconclusive: 15.8 µM [rising, partial curve] |

| Structure (SMILES) | IkBa stabilization activation | Potency |
| --- | --- | --- |
| CCOCCCN(Cc1ccco1)C(=O)c1cc2c(s1)-c1c(C)cccc1OC2 | inconclusive: 3.44% [signal inhibitor] | – |
| CC(C)Oc1ccc(CNC(=O)C2=Cc3ccccc3OC2)cc1 | inconclusive: 6.92% [signal inhibitor] | – |
| NC(=O)C1CCN(c2csc3ccc(F)cc3c2=O)CC1 | inconclusive: 6.5% [signal inhibitor] | – |
| O=C(Nc1ccc(NC(=O)c2ccco2)cc1)c1cnccn1 | – | inconclusive: 25.1 µM [signal inhibitor, partial curve] |
| COC(=O)c1cc(-c2ccc3ccccc3c2)[nH]c(=O)c1C#N | inactive: -2.12% [at 11.4 µM, scaled: untreated 0%, proteasome inhibitor 100%] | – |
| Cc1ccc(NC(=O)CN(C)S(=O)(=O)c2cccc3nsnc23)cc1Cl | inconclusive: 1.15% [signal inhibitor] | – |
| CCCCOc1ccc(-c2nnn(C(C)(C)C(=O)OC)n2)cc1 | inactive | – |
| S=C1N[C@H](c2ccccc2)N[C@H](c2ccccc2)S1 | inactive: 0.821% [at 11.4 µM, scaled: untreated 0%, proteasome inhibitor 100%] | – |
| COc1ccc(-c2ccc(-c3noc(-c4cccs4)n3)c(OC)n2)cc1 | inactive | – |
| Cc1ccc(-c2noc(CNC(=O)c3ccc(C)c(Cl)c3)n2)cc1 | inconclusive: -0.256% [signal inhibitor] | – |
| C=CCn1c(SC(C)C(=O)NCc2ccc3c(c2)OCO3)nnc1C1CCCCC1 (configuration not stated) | inactive | – |
| COc1ccc(C(=O)[C@H]2[C@H]3[C@@H](C(=O)[C@@H]4OC[C@H]3O4)[C@H]3C=Cc4ccccc4N32)c(OC)c1 | inactive: 0.61% [at 11.4 µM, scaled: untreated 0%, proteasome inhibitor 100%] | – |
| COc1ccc(N2CCN(C(=O)CSc3ncccc3-c3nc4ccccc4[nH]3)CC2)cc1 | – | inconclusive: 12.6 µM [signal inhibitor, partial curve] |
| COC(=O)c1sccc1NC(=O)c1cccnc1 | inactive | – |
| O=C(Nc1ccccc1C(F)(F)F)c1ccc(F)c(S(=O)(=O)N2CCc3ccccc3C2)c1 | inactive | – |
| O=C(NCc1ccccc1Cl)c1nnc(Cc2cccc(F)c2)o1 | inconclusive: 2.58% [signal inhibitor] | – |
| CCN(CC)S(=O)(=O)c1cc(C(=O)Nc2ccc(Cl)cn2)ccc1C | inconclusive: 2.1% [signal inhibitor] | – |
| Cc1ccc2c(CC(=O)N(Cc3ccc(N(C)C)cc3)Cc3ccco3)coc2c1C | inconclusive: 0.237% [signal inhibitor] | – |
| Cc1ccc2oc(-c3ccc(C)c(NC(=O)/C=C/c4ccco4)c3)nc2c1 | inconclusive: 2.34% [signal inhibitor] | – |
| O=C1CSC2(C(=O)N(Cc3cccc(C(F)(F)F)c3)c3ccccc32)N1c1ccc(F)c(F)c1 (configuration not stated) | inconclusive: 0.33% [signal inhibitor] | – |
| O=C(c1ccco1)N1CCN(c2ncnc3c2oc2ccccc23)CC1 | inconclusive: -2.18% [signal inhibitor] | – |
